The source of these data is paper PMC4336329 (PLoS ONE, 2015).

The campaign covered roughly 310,000 compounds. About 14,000 (4.5%) showed an effect of 50% or more. The effect is printed as a negative number. Some of the results follow.
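Note: peak tail current of the secondary pulse compared with the same well before compound.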

For this assay, the target named is human ether-à-go-go-related gene (hERG) potassium channel (human, UniProt Q12809). The experiment in a line: primary screen, population patch clamp on CHO cells stably expressing hERG.
Sequence of human ether-à-go-go-related gene (hERG) potassium channel (Q12809 whole entry, looked up): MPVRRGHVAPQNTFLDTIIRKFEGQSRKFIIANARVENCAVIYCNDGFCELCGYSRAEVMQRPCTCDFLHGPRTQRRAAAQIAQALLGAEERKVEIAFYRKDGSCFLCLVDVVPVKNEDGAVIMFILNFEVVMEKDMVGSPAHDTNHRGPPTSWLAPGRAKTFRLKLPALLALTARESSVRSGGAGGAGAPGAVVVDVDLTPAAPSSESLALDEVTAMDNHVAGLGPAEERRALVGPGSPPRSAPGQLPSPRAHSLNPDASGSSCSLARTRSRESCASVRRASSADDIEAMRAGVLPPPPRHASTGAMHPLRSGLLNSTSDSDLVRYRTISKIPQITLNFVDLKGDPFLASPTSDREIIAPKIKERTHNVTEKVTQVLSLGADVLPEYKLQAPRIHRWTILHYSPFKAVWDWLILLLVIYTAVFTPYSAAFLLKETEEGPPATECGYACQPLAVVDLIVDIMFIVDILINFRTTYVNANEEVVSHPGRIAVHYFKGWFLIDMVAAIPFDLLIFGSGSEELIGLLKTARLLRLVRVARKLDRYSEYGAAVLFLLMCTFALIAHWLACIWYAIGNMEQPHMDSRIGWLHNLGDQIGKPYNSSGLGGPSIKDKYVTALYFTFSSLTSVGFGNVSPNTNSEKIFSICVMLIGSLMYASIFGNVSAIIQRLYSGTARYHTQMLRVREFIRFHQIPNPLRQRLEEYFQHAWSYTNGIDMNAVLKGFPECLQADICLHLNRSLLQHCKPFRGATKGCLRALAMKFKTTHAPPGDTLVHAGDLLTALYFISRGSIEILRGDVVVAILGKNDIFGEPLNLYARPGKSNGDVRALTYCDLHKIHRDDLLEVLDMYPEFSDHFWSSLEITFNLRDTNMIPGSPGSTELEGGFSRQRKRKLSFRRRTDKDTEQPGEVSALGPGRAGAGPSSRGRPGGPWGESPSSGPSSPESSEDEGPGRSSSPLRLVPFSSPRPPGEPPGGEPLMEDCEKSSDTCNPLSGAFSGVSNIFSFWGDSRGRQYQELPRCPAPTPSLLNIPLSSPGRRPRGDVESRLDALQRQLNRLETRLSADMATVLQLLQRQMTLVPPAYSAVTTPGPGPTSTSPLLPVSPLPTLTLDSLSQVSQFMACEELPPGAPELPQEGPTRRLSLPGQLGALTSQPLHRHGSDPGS
Consider `COC(=O)C1=C(O)CSC1=Nc1ccc(C)cc1`, for which the “hERG current change (%, negative = inhibition) at 10uM” value turned out to be 0.342%.
Turning to `Cn1c(C(=O)N2CCOCC2)cnc1Sc1ncc(C(F)(F)F)cc1Cl`, the “hERG current change (%, negative = inhibition) at 10uM” value amounted to 5.94%.
In the case of `Cn1nccc1C(=O)N1CCN(c2ccccc2Cl)CC1` it was -18.6%; in that of `COc1cc(OC)c(C2C(C(=O)N3CCOCC3)=C(C)NC3=C2C(=O)CC(C)(C)C3)cc1OC` (stereo not shown), 18.7%.
Regarding `Cn1c(N)c(C(=O)COC(=O)/C=C/c2cccc(Br)c2)c(=O)n(C)c1=O`, the “hERG current change (%, negative = inhibition) at 10uM” value was found to be 2.05%.
In the case of `CN1CN=C(NS(=O)(=O)c2ccc([N+](=O)[O-])cc2)NC1` it was -1.84%; in that of `O=C(NCCc1nnc2ccc(NCC3CCCO3)nn12)c1ccccc1` (stereo not shown), -1.33%; in that of `CC(C)C(c1nnnn1Cc1ccc(F)cc1)N1CCC(C(N)=O)CC1.Cl` (stereo not shown), -7.54%.
As to `O=C(Nc1ccc(F)cc1)OCCOc1ccc(Br)cc1`, the “hERG current change (%, negative = inhibition) at 10uM” value is recorded as 17.6%.
As for `CC(=O)N1CCN(C(=O)CCc2c[nH]c3ccccc23)CC1`, the “hERG current change (%, negative = inhibition) at 10uM” value amounted to 0.963%.
For `CCS(=O)(=O)n1c(Cc2cccs2)nc2ccccc21`, the “hERG current change (%, negative = inhibition) at 10uM” value is 10.6%.
Under `Cc1c(C(=O)Nc2ccncc2)sc2nc(-c3ccc(F)cc3)cn12` stands -8.24%; under `CCN(CC)c1ccc(NC(=O)CN2CCN(CC(=O)Nc3ccc(OC)cc3)CC2)cc1`, -74.9%.
For the molecule `O=C(Nc1cccnc1Cl)C1CCCN(c2ncnc3c2nc2n3CCCCC2)C1` (stereo not shown), the “hERG current change (%, negative = inhibition) at 10uM” value was -42%.
`COc1ccc(/C=N/Nc2ccccc2)cc1Cn1nc(C)c([N+](=O)[O-])c1C`: the “hERG current change (%, negative = inhibition) at 10uM” value amounted to 1.71%.
Turning to `COc1ccc(NC(=S)NC23CN4CN(CN(C4)C2)C3)c(OC)c1`, the “hERG current change (%, negative = inhibition) at 10uM” value is reported as -2.51%.
As to `CCC1CCCCN1C(=O)Nc1ccc(F)cc1` (stereo not shown), the “hERG current change (%, negative = inhibition) at 10uM” value is 18.2%.
Under `O=C(c1ccc2c(=O)n(-c3ccccc3)c(=O)[nH]c2c1)N1CCN(c2ccc(F)cc2)CC1` stands 6.39%; under `CCn1c(=NC(=O)CN2C(=O)CCC2=O)sc2c(OC)ccc(OC)c21`, 7.93%.
For `CCN(CC)CCNC(=O)Cn1c(-c2ccccn2)nc2ccccc21`, the “hERG current change (%, negative = inhibition) at 10uM” value is on record as -35.1%.
Regarding `CC(=O)O[C@]1(C)C(=O)OC/C2=C/CN(C)CCC(OC(=O)[C@@](O)(C(C)O)C[C@H]1C)C2=O` (stereo partly shown), the “hERG current change (%, negative = inhibition) at 10uM” value was 1.77%.
In the case of `NP(=O)(OCCCc1ccccc1)Oc1ccccc1Cl` (stereo not shown) it was -11.9%.
In the case of `CSc1ccccc1C(=O)NCC(c1ccco1)N(C)C` (stereo not shown), the “hERG current change (%, negative = inhibition) at 10uM” value worked out at 16.9%.
Regarding `Cc1ccc(-c2nn3c(C)nnc3s2)cc1NC(=O)C(C)C`, the “hERG current change (%, negative = inhibition) at 10uM” value is 11.8%.
In the case of `Clc1ccc(-n2ncc3c(NCC4CCCO4)ncnc32)cc1` (stereo not shown) it was -0.315%; in that of `COCCN(CC(=O)Nc1ccc(F)cc1)S(=O)(=O)c1ccc(S(=O)(=O)N2CCCC2)cc1`, 5.49%.
In the case of `O=C1CC(C(=O)N(c2ccccc2)C(C(=O)NC2CCCC2)c2ccncc2)CS1` (stereo not shown) it was 24.8%; in that of `COc1ccc(SCC(=O)Nc2ccc(N3CCN(C)CC3)c(F)c2)cc1`, -49.7%.
For the molecule `Nc1c(N(CCC2=CCCCC2)C(=O)c2ccc([N+](=O)[O-])o2)c(=O)[nH]c(=O)n1Cc1ccccc1`, the “hERG current change (%, negative = inhibition) at 10uM” value is on record as -9.08%.
Under `CCOC(=O)N1CCN(CCC(=O)Nc2cccc(Br)c2)CC1.Cl` stands -43.1%; under `CC(C)Oc1cc2oc(=O)c3c(c2cc1Cl)CCC3`, 17.6%.
In the case of `CCOc1ccc(-n2c(SCC(=O)Nc3ccc(OC)cc3)nc3c(c2=O)SCC3)cc1`, the “hERG current change (%, negative = inhibition) at 10uM” value came to 6.25%.
In the case of `CCC(C(=O)N1CCOCC1)n1c2ccccc2c2nc(=O)cc(C)n21` (stereo not shown) it was 13%; in that of `CCOc1ccc(NC(=O)C2CCC(C)(C(=O)O)C2(C)C)cc1` (stereo not shown), 6.49%; in that of `CN(C(=O)CSc1nnc(-c2ccccc2F)o1)c1ccccc1`, -7.07%.
Under `Cc1ccc(S(=O)(=O)N(C)CC(=O)Nc2ccccc2)cc1` stands -20%; under `CCOc1ccc2c(c1)C(c1cccs1)=NNC(c1cccnc1)=N2`, -65.4%; under `Cc1ccccc1NC(=O)Cc1nnc(SCC(=O)NC2CCCC2)n1C`, 13.3%.
Under `Cn1c(-c2cc3c(C(F)(F)F)nn(C)c3s2)n[nH]c1=S` stands 16.7%; under `COCCCNC(=O)C1C2C=CC3(CN(Cc4ccc(C)cc4)C(=O)C13)O2` (stereo not shown), 2.29%.
For `COc1ccccc1OCC(=O)N1CCCCCCC1`, the “hERG current change (%, negative = inhibition) at 10uM” value was 11%.
Take `COC(=O)c1sccc1NC(=S)N1CCC(C)CC1`: the “hERG current change (%, negative = inhibition) at 10uM” value is reported as 9.29%.
In the case of `O=C(O)CSc1c(-c2ccccc2)c2cc(Cl)ccc2[nH]c1=O` it was -3.09%.
With `Cc1cc(C)cc(N(CC(=O)NCc2ccc3c(c2)OCO3)C(=O)CCC(=O)Nc2ccccn2)c1`, the “hERG current change (%, negative = inhibition) at 10uM” value is given as -6.47%.
Consider `CCOc1ccc(NC(=O)CCS(=O)(=O)c2ccc3c(c2)CCCN3C(C)=O)cc1`, for which the “hERG current change (%, negative = inhibition) at 10uM” value is listed as 7.01%.
Consider `C/C=C(/C)C(=O)OC1c2c(ccc3ccc(=O)oc23)OC(C)(C)C1OC(=O)/C(C)=C\C` (stereo not shown), for which the “hERG current change (%, negative = inhibition) at 10uM” value was -12.3%.
For the molecule `CCOC(=O)C1=C(C)NC(C)=C(C(=O)OCC)C1C(=O)OCC(=O)N(C)C1CCS(=O)(=O)C1` (stereo not shown), the “hERG current change (%, negative = inhibition) at 10uM” value is recorded as 12.3%.
In the case of `Cc1cccc(OC(=O)c2sc3ncn(C)c(=O)c3c2C)c1`, the “hERG current change (%, negative = inhibition) at 10uM” value stood at 3.54%.
In the case of `Cl.O=C(CN1CCOCC1)N1CCc2ccccc2C(c2ccccc2)C1` (stereo not shown) it was -9.78%; in that of `CCc1ccc2[nH]c(=O)c(CN(CCCN3CCOCC3)C(=O)Nc3ccc(Cl)cc3)cc2c1`, -65.6%; in that of `Nc1nc2ccccc2n1C(=O)CCc1ccccc1`, 21%.
In the case of `O=Cc1ccc(Oc2cccc(C(F)(F)F)c2)nc1` it was 5.59%; in that of `O=C(Nc1cccc(NC(=O)c2cccs2)c1)c1ccc([N+](=O)[O-])o1`, -22.3%.
Under `CC(NC(=O)C1CCCN1S(=O)(=O)c1cccc2nsnc12)c1ccccc1` (stereo not shown) stands -1.81%; under `O=[N+]([O-])c1cccc(S(=O)(=O)Nc2ccc(S(=O)(=O)Nc3nccs3)cc2)c1`, 13.9%.
